# Experimental data taken from PubChem BioAssay (NCATS).
# The inconclusive results got no clear call from the source; some entries with a clear call stand among them for comparison. No potency is given beside an inconclusive call; the fits are too rough. Activity calls are given as the source filed them. Calls follow the shape of the dose curve; as a rule, active = well fitted inhibition curve with a large enough effect; inconclusive = small, poorly fitted or top-dose-only effect; inactive = flat fitted curve, though single readings scatter.
# Biological target: Aldehyde dehydrogenase, mitochondrial (Homo sapiens) (UniProt P05091)
# Assay: qHTS for Inhibitors of the Aldehyde Dehydrogenase Family (ALDH2) Primary screen (AID 2061308); also: nearly all actives have a fitted effect of over 55% in size
# Settings: ALDH2 enzyme inhibition qHTS, 1536-well; series mostly up to 56 µM
# Potency is read from the fitted curve at half-maximal effect; tags tell the direction and shape of the fitted curve.
row,Structure (SMILES),Potency
1,CNC1CCC(N(Cc2cccc(-c3ccncc3)c2)C(=O)c2sc3ccccc3c2Cl)CC1 (stereo not given),inactive
2,Cn1cc(-c2c[nH]c3ncnc(N4CCOCC4)c23)cn1,inactive
3,COc1cccc2nc(-c3cccs3)nc(NN3C(=O)C=C(C)C3=O)c12,"inconclusive [inhibitor, single point]"
4,C[C@H]1O[C@@H](O[C@H]2[C@@H](O)C[C@H](O[C@H]3[C@@H](O)C[C@H](O[C@H]4CC[C@@]5(C)[C@H](CC[C@@H]6[C@@H]5C[C@@H](O)[C@]5(C)[C@@H](C7=CC(=O)OC7)CC[C@]65O)C4)O[C@@H]3C)O[C@@H]2C)C[C@H](O)[C@@H]1O,inactive
5,CC(C)(C)C(=O)CN1C(=O)[C@H](NC(=O)Nc2cccc(C(=O)O)c2)CN(C2CCCCC2)c2ccccc21,inactive
6,CC(=O)Nc1ccc(C(=O)Nc2ccccc2N)cc1,inactive
7,CCOc1cc(C(C)(C)C)ccc1C1=N[C@@](C)(c2ccc(Cl)cc2)[C@@](C)(c2ccc(Cl)cc2)N1C(=O)N1CCN(CC(=O)N2CCOCC2)CC1,"inconclusive [inhibitor, partial curve, poor fit]"
8,C[C@H]1Oc2cc(cnc2N)-c2c(nn(C)c2C#N)CN(C)C(=O)c2ccc(F)cc21,inactive
9,COCCCc1sc(-c2ccccc2)nc1C(=O)Nc1ccccc1-c1nc2cc(CN3CCCC3)cnc2s1,inactive
10,C[C@@H]1O[C@@H](O[C@@H]2\C=C/C=C\C=C/C=C\C[C@H](C)OC(=O)/C=C\[C@H]3O[C@@H]3C[C@H](O)C[C@]3(O)C[C@@H](O)[C@@H](C(=O)O)[C@H](C2)O3)[C@H](O)[C@H](N)[C@@H]1O,"inconclusive [inhibitor, single point]"
